Data from paper PMC5571105.
Substitutions are numbered along the chain they refer to. Results are given in words; binding and its absence hold for the method and conditions named. For part of these data: Binding seen in cells or lysates may run through a third protein. Some results given as binding are weak or reduced against the parent protein; the word gives no strength. For part of these data: Tags and fused reporters may be left off the sequences shown. One block for each binder: values may come before it.

What was measured:
OsRR10 (rice) [1] = target: T1, OsRR10 (rice) (UniProt Q2QXY3); assay: two-hybrid; β-galactosidase filter lift assay (LacZ reporter) of the co-transformed yeast colonies, X-gal as substrate, 30 °C in the dark
T1 sequence: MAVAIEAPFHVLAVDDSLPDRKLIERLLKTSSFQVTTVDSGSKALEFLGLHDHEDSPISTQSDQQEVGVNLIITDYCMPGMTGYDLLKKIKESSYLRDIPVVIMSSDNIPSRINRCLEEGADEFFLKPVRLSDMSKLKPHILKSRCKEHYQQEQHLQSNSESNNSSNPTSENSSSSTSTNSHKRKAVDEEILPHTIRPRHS

OsRR10 (rice) [2] = target: T1, OsRR10 (rice); assay: two-hybrid; S. cerevisiae AH109; bait in pGBD-C1 (GAL4 binding domain; written as target), prey in pGAD-C1 (GAL4 activation domain; written as binder); serial dilutions spotted on triple drop-out medium with 5 mM 3-AT (HIS3) and quadruple drop-out medium (ADE2), 30 °C; growth on quadruple drop-out shows strong interaction
nEYFP-OsRR10 (rice) = target: T2, nEYFP-OsRR10 (rice) (UniProt Q2QXY3); assay: split reporter; BiFC in onion epidermal peel cells, nEYFP and cEYFP fusions under the 2XCaMV35S promoter co-transformed by particle bombardment; YFP seen by confocal microscopy 12 hours post transfection; repeated three times
T2 sequence: T1 sequence

OsRR2 (rice) = target: T3, OsRR2 (rice) (UniProt Q6YVX7); assay: two-hybrid; S. cerevisiae AH109; bait in pGBD-C1 (GAL4 binding domain; written as target), prey in pGAD-C1 (GAL4 activation domain; written as binder); serial dilutions spotted on triple drop-out medium with 5 mM 3-AT (HIS3) and quadruple drop-out medium (ADE2), 30 °C; growth on quadruple drop-out shows strong interaction
T3 sequence: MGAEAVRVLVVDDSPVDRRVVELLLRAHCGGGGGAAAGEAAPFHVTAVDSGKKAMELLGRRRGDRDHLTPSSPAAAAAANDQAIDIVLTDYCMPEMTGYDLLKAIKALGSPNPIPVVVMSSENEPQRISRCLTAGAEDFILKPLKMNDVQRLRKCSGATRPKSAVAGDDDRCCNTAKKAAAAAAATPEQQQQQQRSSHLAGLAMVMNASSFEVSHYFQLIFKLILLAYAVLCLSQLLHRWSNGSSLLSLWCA

OsRR3 (rice) = target: T4, OsRR3 (rice) (UniProt Q6K9T0); assay: as above
T4 sequence: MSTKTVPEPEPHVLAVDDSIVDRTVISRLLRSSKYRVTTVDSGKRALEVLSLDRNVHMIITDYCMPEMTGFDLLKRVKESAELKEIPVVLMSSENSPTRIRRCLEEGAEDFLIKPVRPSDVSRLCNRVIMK

OsRR9 (rice) = target: T5, OsRR9 (rice) (UniProt Q2RAP3); assay: as above
T5 sequence: T1 sequence with G68A, H155N, T179S

cEYFP-OsPRR1 (rice) = target: T6, cEYFP-OsPRR1 (rice) (UniProt Q689G9); assay: split reporter; BiFC in onion epidermal peel cells, nEYFP and cEYFP fusions under the 2XCaMV35S promoter co-transformed by particle bombardment; YFP seen by confocal microscopy 12 hours post transfection; repeated three times
T6 sequence: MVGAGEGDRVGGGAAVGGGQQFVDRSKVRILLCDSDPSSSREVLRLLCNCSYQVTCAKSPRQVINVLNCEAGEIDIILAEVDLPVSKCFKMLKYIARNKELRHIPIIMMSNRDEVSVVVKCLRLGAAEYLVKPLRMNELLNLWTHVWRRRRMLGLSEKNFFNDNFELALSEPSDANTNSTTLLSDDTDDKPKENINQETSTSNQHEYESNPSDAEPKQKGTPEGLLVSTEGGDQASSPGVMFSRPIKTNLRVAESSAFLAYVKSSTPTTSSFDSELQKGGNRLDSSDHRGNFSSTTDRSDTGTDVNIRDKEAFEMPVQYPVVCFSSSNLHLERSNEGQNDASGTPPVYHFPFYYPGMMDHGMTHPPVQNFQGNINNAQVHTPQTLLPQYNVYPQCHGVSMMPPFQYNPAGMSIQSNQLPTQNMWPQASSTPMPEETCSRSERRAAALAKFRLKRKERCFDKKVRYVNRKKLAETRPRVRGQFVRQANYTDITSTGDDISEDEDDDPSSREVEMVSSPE

OsPRR1 (rice) = target: T7, OsPRR1 (rice) (UniProt Q689G9); assay: two-hybrid; S. cerevisiae AH109; bait in pGBD-C1 (GAL4 binding domain; written as target), prey in pGAD-C1 (GAL4 activation domain; written as binder); serial dilutions spotted on triple drop-out medium with 5 mM 3-AT (HIS3) and quadruple drop-out medium (ADE2), 30 °C; growth on quadruple drop-out shows strong interaction
T7 sequence: T6 sequence

B1: OsRR22 (protein, UniProt Q5SML5 1-696)
chain: MLLGALRMEERKGLMGRERDQFPVGMRVLAVDDDPVCLKVLETLLRRCQYHVTSTNQAITALKLLRENRDMFDLVISDVHMPDMDGFKLLELVGLEMDLPVIMLSVNGETKTVMKGITHGACDYLLKPVRIEELRNIWQHVVRRKFGNRERNNLDFSKECNKPQSADTDHGPYQPTCGSSDQNGRSSRKRKELHGEDDDEGDDNDYQENDEPSAAKKPRVVWSVELHRKFVAAVNQLGIDKAVPKRILELMNVEKLTRENVASHLQKYRLYLKRLGAVASQQASIVAAFGGRDPSFLHIGAFEGLQSYQPFAPSAALPSFNPHGLLTRTSAAAAFGLQELAAPSSTIQTSTGNVTVGHCLEENQQANLAQGLTAAIGQPQLQQNWIHQEGNGLSDVFSGSSLTNTLSSTLQRVPSSSLPPQELLECKQAKVSMPPSIRIPPSSSALLERTLGVSTNLGDSSISQQGALPIDGGFSADRLPLHSSFDGAVATKLDTSLAASQREIGQQGKFSVSMLVSPSDNLALAKNAKTGASSSGSTIILPLDTARHSDYLQFGGASNSLQKMDGQKQDHIQSSNIIWSSMPSTQLPSDTQIHNTQNQRLDSGSFNHNIGAHLADQTNASASILPQMKFDTRISEEKMKQKNTYDLGSSKLQGGFNSSGCNFDGLLNSIIKVEKDDLPFMDNELGCDLFPLGACI
binding (OsRR10 (rice) [1]): binds
binding (OsRR10 (rice) [2]): binds

B5: OsPRR73 (protein, UniProt Q10N34 1-767)
chain: MGSACEAGTDEPSRDDVKGTGNGILENGHSHKPEEEEWRNGMGEDLPNGHSTPPEPQQTDEQKEHQVQIVRWERFLPVKTLRVLLVENDDSTRQVVSALLRKCCYEVIPAENGLHAWQCLEDLQNHIDLVLTEVVMPRLSGIGLLSKITSHKICKDIPVIMMSSNDSMGTVFKCLSKGAVDFLVKPIRKNELKNLWQHVWRRCHSSSGSGSESGIRTQKCTKPKVDDEYENNSGSNNDNEDDDDNDEDDDDLSVGHNARDGSDNGSGTQSSWTKRAVEIDSPQQMSPDQPSDLPDSTCAQVIHPTSEICSNRWLPTANKRSGKKHKENNDDSMGKYLEIGAPRNSSMEYQSSPREMSVNPTEKQHETLMPQSKTTRETDSRNTQNEPTTQTVDLISSIARSTDDKQVVRINNAPDCSSKVPDGNDKNRDSLIDMTSEELGLKRLKTTGSATEIHDERNILKRSDLSAFTRYHTTVASNQGGAGFGGSCSPQDNSSEALKTDSNCKVKSNSDAAEIKQGSNGSSNNNDMGSSTKNAITKPSSNRGKVISPSAVKATQHTSAFHPVQRQTSPANVVGKDKVDEGIANGVNVGHPVDVQNSFMQHHHHVHYYVHVMTQQQQQPSIERGSSDAQCGSSNVFDPPIEGHAANYSVNGSFSGGHNGNNGQRGPSTAPNVGRPNMETVNGIVDENGAGGGNGSGSGSGNDLYQNGVCYREAALNKFRQKRKVRNFGKKVRYQSRKRLAEQRPRIRGQFVRQSGQEDQAGQDEDR
binding (OsPRR1 (rice)): no binding

Next, values leading:

binding (nEYFP-OsRR10 (rice)): binds
B2: OsRR22 (BiFC fusion) (protein, UniProt Q5SML5 1-696)
chain: B1 chain

binding (OsRR10 (rice) [2]): no binding
binding (OsRR2 (rice)): no binding
binding (OsRR3 (rice)): no binding
binding (OsRR9 (rice)): no binding
B3: OsRR23 (protein, UniProt Q6K8X6 1-688)
chain: MRAAEERKGVVPAARRRDQFPVGMRVLAVDDDPVCLKVLETLLLRCQYHVTTTNQAAIALKMLRENRDMFDLVISDVHMPDMDGFKLLELVGLEMDLPVIMLSVNGETKTVLKGITHGACDYLLKPVRIEELRNIWQHVIRRKFSTRDRANLDFYEECNKPPNADSDHVHGHVTCGSPDQSGRPSKKRKEYCSEEEDEGEVNTQDIDDPSAPKKPRVVWSVELHRKFVAAVNQLGIDKAVPKRILELMNVEKLTRENVASHLQKYRLYLKRLSAVASQQVSIVAALGGRDPFLHMGGFEGLQGYQAFTSSAALSSFTPHGLLNSPRNNPAALGTQGVPASKSIQTMSGSHTLSHSINDANKYHLSLPGNQKGNLGQGLATSLGQTQMQQKWIHEETDDLSTILSGNGLSNGMSGTLQSVTSSPLLPQELAECTQAKIVSQPSIRTSSVSSEHIEGAVGVSSGLLESRVSQQSTIPLSGFSANGLLIHGSFNNTCANKLGGTSSSCAPARSSNDLMVARDTKGGASSFGGAMLLPPDTEQKYLNFGGGNGLKQKFDDRTADSLFDLKFVWSSVPSSQLASNIGAHHAMSQRWNNSSSNSSNIGARMIGQATSSGSTVIPQMKTDFLVSGDMAMPKNASDLSIPKLQSELSSSSCSFDGLLNSIVKVEKDDVTFSDDLGCGDFYSLGACI

binding (cEYFP-OsPRR1 (rice)): binds
B4: nYFP-OsPRR37 (protein, UniProt Q0D3B6 1-742)
chain: MMGTAHHNQTAGSALGVGVGDANDAVPGAGGGGYSDPDGGPISGVQRPPQVCWERFIQKKTIKVLLVDSDDSTRQVVSALLRHCMYEVIPAENGQQAWTYLEDMQNSIDLVLTEVVMPGVSGISLLSRIMNHNICKNIPVIMMSSNDAMGTVFKCLSKGAVDFLVKPIRKNELKNLWQHVWRRCHSSSGSGSESGIQTQKCAKSKSGDESNNNNGSNDDDDDDGVIMGLNARDGSDNGSGTQAQSSWTKRAVEIDSPQAMSPDQLADPPDSTCAQVIHLKSDICSNRWLPCTSNKNSKKQKETNDDFKGKDLEIGSPRNLNTAYQSSPNERSIKPTDRRNEYPLQNNSKEAAMENLEESSVRAADLIGSMAKNMDAQQAARAANAPNCSSKVPEGKDKNRDNIMPSLELSLKRSRSTGDGANAIQEEQRNVLRRSDLSAFTRYHTPVASNQGGTGFMGSCSLHDNSSEAMKTDSAYNMKSNSDAAPIKQGSNGSSNNNDMGSTTKNVVTKPSTNKERVMSPSAVKANGHTSAFHPAQHWTSPANTTGKEKTDEVANNAAKRAQPGEVQSNLVQHPRPILHYVHFDVSRENGGSGAPQCGSSNVFDPPVEGHAANYGVNGSNSGSNNGSNGQNGSTTAVNAERPNMEIANGTINKSGPGGGNGSGSGSGNDMYLKRFTQREHRVAAVIKFRQKRKERNFGKKVRYQSRKRLAEQRPRVRGQFVRQAVQDQQQQGGGREAAADR
